# Results reported in patent US6818625B2, “Method for increasing survival rate of cells in animal cell culture under hypoxia condition” (priority 2000, dated 2004).
# Tested on: HepG2 cells
# Test: Screening of antibiotics enhancing HepG2 cell viability under hypoxic condition
# Format: cell-based, human
# Settings: HepG2, 1% (v/v) oxygen
Compound,effective concentration exerting enhancement effects on cell viability,enhancement effect on cell viability under hypoxic condition
O=C(N[C@H](CO)[C@H](O)c1ccc([N+](=O)[O-])cc1)C(Cl)Cl [chloramphenicol],1 to 10 µg/mL,effective
COc1ccc(CN2CCNCC2)c(OC)c1OC [trimetazidine],,did nor show any positive result
neomycin,1000 µg/mL,effective
CN(C)[C@@H]1C(O)=C(C(N)=O)C(=O)[C@@]2(O)C(O)=C3C(=O)c4c(O)cccc4[C@@](C)(O)[C@H]3[C@H](O)[C@@H]12 [oxytetracycline],0.1 to 10 µg/mL,
CN(C)[C@@H]1C(O)=C(C(N)=O)C(=O)[C@@]2(O)C(O)=C3C(=O)c4c(O)cccc4[C@@](C)(O)[C@H]3C[C@@H]12 [tetracycline],0.1 to 10 µg/mL,
CC1(C)S[C@@H]2[C@H](NC(=O)[C@H](N)c3ccccc3)C(=O)N2[C@H]1C(=O)O [ampicillin],,did not show enhancement effect
CC1COc2c(N3CCN(C)CC3)c(F)cc3c(=O)c(C(=O)O)cn1c23 (stereo not drawn) [ofloxacin],10 to 100 µg/mL,
Nc1ccc(S(=O)(=O)Nc2ncccn2)cc1 [sulfadiazine],,did not show any effect
C[C@H]1c2cccc(O)c2C(=O)C2=C(O)[C@]3(O)C(=O)C(C(N)=O)=C(O)[C@@H](N(C)C)[C@@H]3[C@@H](O)[C@@H]21 [doxycycline],0.1 to 10 µg/mL,
O=c1[nH]cc(F)c(=O)[nH]1 [5-fluorouracil],,did not show any effect
C[C@@H]1C[C@@H]([C@H](O)CC2CC(=O)NC(=O)C2)C(=O)[C@@H](C)C1 [cyclohexamide],,did not show any effect
CC1(C)S[C@@H]2[C@H](NC(=O)[C@H](N)c3ccc(O)cc3)C(=O)N2[C@H]1C(=O)O [amoxillin],,did not show enhancement effect
O=C(O)c1cn(C2CC2)c2cc(N3CCNCC3)c(F)cc2c1=O [ciprofloxacin],1 to 10 µg/mL,effective
gentamicin,,effective
CC[C@H]1OC(=O)[C@H](C)[C@@H](O[C@H]2C[C@@](C)(OC)[C@@H](O)[C@H](C)O2)[C@H](C)[C@@H](O[C@@H]2O[C@H](C)C[C@H](N(C)C)[C@H]2O)[C@](C)(O)C[C@@H](C)C(=O)[C@H](C)[C@@H](O)[C@]1(C)O [erythromycin],,not effective
COc1ccc(C[C@H](N)C(=O)N[C@H]2[C@@H](O)[C@H](n3cnc4c(N(C)C)ncnc43)O[C@@H]2CO)cc1 [puromycin],,did not show any effect
CN(C)c1ccc(O)c2c1C[C@H]1C[C@H]3[C@H](N(C)C)C(O)=C(C(N)=O)C(=O)[C@@]3(O)C(O)=C1C2=O [minocycline],0.1 to 10 µg/mL,

# Same assay, conditions: Homo sapiens; HepG2, 1% (v/v) oxygen; read-out: effective concentration exerting enhancement effects on cell viability
row,Compound,minimal effective concentration
1,CN(C)[C@@H]1C(O)=C(C(N)=O)C(=O)[C@@]2(O)C(O)=C3C(=O)c4c(O)cccc4[C@@](C)(O)[C@H]3C[C@@H]12 [tetracycline],0.1 to 10 µg/mL
